Experimental data taken from paper PMC4336329 (PLoS ONE, 2015).
The campaign covered roughly 310,000 compounds. About 14,000 (4.5%) showed an effect of 50% or more. Effects have a minus sign here. The list shows a part of the results.

molecular target: human ether-à-go-go-related gene (hERG) potassium channel (human, UniProt Q12809); test: primary screen, population patch clamp on CHO cells stably expressing hERG
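Further: peak tail current of the secondary pulse compared with the same well before compound.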

Chain of human ether-à-go-go-related gene (hERG) potassium channel (Q12809 whole entry, looked up): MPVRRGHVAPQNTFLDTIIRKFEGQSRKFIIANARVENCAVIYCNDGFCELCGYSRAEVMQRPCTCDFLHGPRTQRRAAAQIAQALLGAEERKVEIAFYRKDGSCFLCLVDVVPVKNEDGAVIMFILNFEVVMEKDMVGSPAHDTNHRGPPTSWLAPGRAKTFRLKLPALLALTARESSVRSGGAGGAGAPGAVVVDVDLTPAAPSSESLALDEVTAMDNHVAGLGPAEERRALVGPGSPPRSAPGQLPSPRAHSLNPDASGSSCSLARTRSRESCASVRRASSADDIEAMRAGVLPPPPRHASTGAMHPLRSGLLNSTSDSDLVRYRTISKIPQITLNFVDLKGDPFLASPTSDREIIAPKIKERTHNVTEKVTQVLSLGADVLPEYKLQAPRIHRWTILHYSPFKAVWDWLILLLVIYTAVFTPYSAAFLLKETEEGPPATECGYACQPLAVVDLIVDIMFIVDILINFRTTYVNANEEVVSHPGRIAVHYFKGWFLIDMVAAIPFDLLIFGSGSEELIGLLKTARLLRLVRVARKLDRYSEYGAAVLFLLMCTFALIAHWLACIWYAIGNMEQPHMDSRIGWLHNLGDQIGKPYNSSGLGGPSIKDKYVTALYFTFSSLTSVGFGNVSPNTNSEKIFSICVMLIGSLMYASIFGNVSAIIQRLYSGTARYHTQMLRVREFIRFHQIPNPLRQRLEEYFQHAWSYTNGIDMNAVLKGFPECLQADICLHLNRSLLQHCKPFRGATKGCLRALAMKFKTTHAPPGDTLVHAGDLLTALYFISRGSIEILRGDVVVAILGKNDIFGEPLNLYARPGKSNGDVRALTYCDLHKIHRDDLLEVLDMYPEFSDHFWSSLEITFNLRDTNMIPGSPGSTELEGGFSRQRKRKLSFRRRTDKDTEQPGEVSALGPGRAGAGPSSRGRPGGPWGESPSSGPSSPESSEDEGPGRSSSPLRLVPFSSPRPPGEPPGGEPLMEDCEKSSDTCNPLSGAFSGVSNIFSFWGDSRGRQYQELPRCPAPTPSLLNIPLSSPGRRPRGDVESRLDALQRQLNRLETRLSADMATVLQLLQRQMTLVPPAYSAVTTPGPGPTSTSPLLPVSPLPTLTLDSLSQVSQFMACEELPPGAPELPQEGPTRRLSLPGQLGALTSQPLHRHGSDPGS

| Compound | hERG current change (%, negative = inhibition) at 10uM |
| --- | --- |
| Cn1c(=O)c2c(nc3n2CC(CO)O3)n(C)c1=O (stereo not shown) | 4.2% |
| CS(=O)Cc1cc(Sc2ccccc2)nc(-c2ccncc2)n1 (stereo not shown) | -33% |
| CCOC(=O)c1nn(-c2ccc(C)cc2)c(=O)cc1OCC(=O)Nc1cccc(OC)c1 | 1.6% |
| O=C(CN1CCN(S(=O)(=O)c2ccc(Cl)cc2)CC1)Nc1ccc(F)cc1F | -78.3% |
| Fc1ccccc1NC(=S)NCCc1ccccc1 | 7.89% |
| COC(=O)CCC(=O)Nc1ccc(Br)cc1 | -8.82% |
| COc1cc(NC(=O)c2cc(CC(C)C)on2)c(OC)cc1Cl | -7.3% |
| OC1(c2ccccc2)CN(c2ccccc2)C2=[N+]1CCS2.[Br-] (stereo not shown) | -28.1% |
| COc1ccc(Cc2nc3ccc(S(N)(=O)=O)cc3[nH]2)cc1OC | 2.52% |
| Cc1ccc(C2(C)NC(=O)N(CC(=O)Nc3ccc(Cl)c(S(=O)(=O)N4CCCCC4)c3)C2=O)cc1 (stereo not shown) | -8.83% |
| CCC(C)NC(=O)CC1Oc2ccc(C)cc2NC1=O (stereo not shown) | 5.92% |
| NC(=O)c1sc2nc3c(cc2c1N)CCC3 | 8.92% |
| Cc1cc(C)n2nc(SCC(=O)N(C)C)nc2n1 | 9.06% |
| Nc1ccc(C23CC4CC(CC(C4)C2)C3)cc1 | 11.1% |
| O=C(CCn1ccc2cc(S(=O)(=O)N3CCCC3)ccc21)NCc1cccc(F)c1 | 6.86% |
| CCOC(=O)c1sc(NC(=O)C2CSC3(C)CCC(=O)N23)nc1C (stereo not shown) | -42.8% |
| CC1CC(C)CN(C(=O)CSc2nc(Cc3cccs3)nc3ccccc23)C1 (stereo not shown) | -13% |
| CCCCCCCNC(=O)C1(CC2CC(c3ccccc3)=NO2)CCN(C(=O)c2ccccc2)CC1 (stereo not shown) | -70.9% |
| CC(=O)Nc1ccc(-c2csc(Nc3ccc(S(N)(=O)=O)cc3)n2)cc1 | -1.99% |
| COc1ccc(NC(=O)CCCC2=NS(=O)(=O)c3ccccc3N2)cc1 | 17% |
| COc1ccc(Cc2c(Cl)ncnc2Cl)cc1 | 1.27% |
| CCOc1ccc(S(=O)(=O)N2CCOCC2)cc1NC(=O)c1ccccc1F | 25.6% |

| Compound | hERG current change (%, negative = inhibition) at 10uM |
| --- | --- |
| Cc1ccc(S(=O)(=O)N2CCCCC2)cc1NC(=O)c1cccs1 | -28.8% |
| COC(=O)C1=C(c2ccccc2)C[C@@H]2CC[C@H]1N2C(=O)N1CCCCC1 | -4.4% |
| O=C(Nc1cccnc1)c1cc2c(s1)-c1ccccc1OC2 | -2.06% |
| COC(=O)CN(c1ccc2c(c1)OCO2)S(C)(=O)=O | 3.07% |
| OC(CCNCCc1c[nH]c2ccccc12)C(F)(F)F (stereo not shown) | 2.34% |
| CC(C)C(NC(=O)c1ccc(C(C)(C)C)cc1)C(=O)N1CCCC1 (stereo not shown) | -0.279% |
| CCOC(=O)c1[nH]c2c(c1-c1ccccc1)C(=O)CC(c1ccc(OCC)cc1)C2 (stereo not shown) | 4.63% |
| CCC(C)(C)n1nnnc1C(c1ccc(O)cc1)N1CCc2ccccc2C1.Cl (stereo not shown) | -33.3% |
| COc1ccccc1C(=O)NCCC(=O)NCC(c1ccccc1OC)N1CCCC1 (stereo not shown) | 29.8% |
| COc1cccc(CN2CC(C(=O)N3CCN(c4ccc(Cl)cc4)CC3)CCC2=O)c1 (stereo not shown) | -70.9% |
| CC(C)c1nc(=S)n(-c2ccccc2)[nH]1 | 17.5% |
| COC(=O)CSc1nnc(NC(=O)/C=C\c2ccc3c(c2)OCO3)s1 | 20.3% |
| CN(C)C(=O)c1ccc(NC(=O)COc2cccc(Oc3ccccc3)c2)cc1 | -20.4% |
| O=C(N/N=C/c1ccco1)c1ccn[nH]1 | 22.5% |
| Cc1cc(NC(=O)c2ccccc2)no1 | 5.42% |
| COC(=O)c1cc(NC(=O)CN(c2cccc(OC)c2)S(=O)(=O)c2ccccc2)ccc1Cl | -14.2% |
| O=C(NCCN1CCOCC1)c1ccc2c(c1)N(Cc1ccccc1)C(=O)c1ccccc1S2 | -1.92% |
| Cc1cccc(-c2noc(CCc3ccccc3)n2)c1 | -1.82% |
| O=C(c1ccco1)N1CCN(C(=O)c2ccc(-c3ccccc3Cl)o2)CC1 | -67.6% |
| CCOC(=O)c1cccc(C(=O)OCC)n1 | 13.3% |
| CC(CCc1ccccc1)NC(=O)COC(=O)c1cccs1 (stereo not shown) | -3.94% |
| Cc1c(NP(=O)(c2ccc(Br)cc2)c2ccc(Br)cc2)c(=O)n(-c2ccccc2)n1C | -65.7% |

| Compound | hERG current change (%, negative = inhibition) at 10uM |
| --- | --- |
| Cc1ccc(S(=O)(=O)c2c(C)nn(-c3ccccc3)c2OC(=O)c2ccc(Br)o2)cc1 | 20% |
| CCOc1cccc(CN2CCC(Oc3ccc(C(=O)NCc4ccccn4)cc3)CC2)c1 | -13.8% |
| COc1ccc(NC(=O)c2cccnc2N2CCCCC2)cc1 | -14.1% |
| CCCNCc1cc(OC)c(OCC(=O)NCCc2ccccc2)cc1Br | -38.1% |
| Cc1cccc(NC(=O)CN2C(=O)S/C(=C\c3ccc(-c4cccc(C(=O)O)c4C)o3)C2=O)c1 | 5.27% |
| Cc1cc(=O)oc(C)c1C(=O)NCCCN1CCN(c2ccccc2F)CC1 | -40.4% |
| COc1ccc(NC(=O)c2cc(=O)[nH]c3ccccc23)cc1 | 16.1% |
| CCC(=O)N/N=C(\C)CC(=O)Nc1ccc2c(c1)OCCO2 | 27.5% |
| O=S(=O)(c1ccc(Cl)cc1)c1nc(-c2ccco2)oc1N1CCCCC1 | -7.91% |
| O=[N+]([O-])c1cccc(-c2nnnn2-c2cccc(F)c2)c1 | 5.66% |
| O=C(Nc1ccccc1Cl)c1ccccc1S(=O)(=O)c1ccccc1[N+](=O)[O-] | 7.38% |
| CC(C)=NNc1nc(-c2ccc([N+](=O)[O-])cc2)cs1 | -13.2% |
| CC1(C)Cc2c(sc(NC(=O)COc3cccc4ccccc34)c2C#N)C(C)(C)N1 | 11.6% |
| CC(=O)c1ccc(S(=O)(=O)NC2CC2)cc1 | 15.8% |
| COc1ccc(-n2nc(C(=O)NCC(=O)N3CCN(C)CC3)c3ccccc3c2=O)cc1 | 15.5% |
| Cc1ccc(OC(=O)c2ccc3nc(C)sc3c2)cc1 | 17.1% |
| Cc1ccc(C(=O)CCNc2cccc(Br)c2)o1 | 4.71% |
| Cc1ccc(N2CC(C(=O)Nc3nnc(SCc4cccnc4)s3)CC2=O)cc1 (stereo not shown) | -3.64% |
| COc1ccc(OC)c(NC(=O)Cn2c(-c3ccc(Cl)cc3)noc2=O)c1 | -15.6% |
| CN(C1CCCCC1)S(=O)(=O)c1ccc(NC(=O)C2CCCCC2)cc1 | -9.97% |
| CCOC(=O)c1cnc2c(C(F)(F)F)cccc2c1N1CCN(C)CC1.Cl | -33.7% |
| O=C(N/N=C/c1nn(-c2ccccc2)cc1-c1ccccc1)c1ccncc1 | -8.55% |

| Compound | hERG current change (%, negative = inhibition) at 10uM |
| --- | --- |
| CCCCOc1ccc(C(O)(CCN2CCOCC2)c2ccccc2)cc1.Cl (stereo not shown) | -21.7% |
| Cl.O=C(/C=C/c1cn(-c2ccccc2)nc1-c1cccs1)NCCN1CCOCC1 | -39% |
| CN(C)S(=O)(=O)c1cccc(NC(=O)CN2C(=O)NC3(CCc4ccccc4C3)C2=O)c1 (stereo not shown) | 13.9% |
| COc1cc(OC)cc(C(=O)N=c2sc3ccccc3n2C)c1 | 25.3% |
| COCCn1c(C)cc(C(=O)CSc2nnnn2C2CCCC2)c1C | -69% |
| Cc1cccc(C)c1NS(=O)(=O)c1ccc(NC(=O)c2ccc(Cl)c([N+](=O)[O-])c2)cc1 | 13.9% |
| Cc1ccc(NC(=O)c2ccc(F)cc2F)cc1NS(C)(=O)=O | 6.69% |
| O=S(=O)(NC1CCCC1)c1cccc(S(=O)(=O)N2CCC(n3nnc4ccccc43)CC2)c1 | -26% |
| CC(/C=N/NC(=O)c1ccccc1F)=C\c1ccccc1 | 12.7% |
| CC1=NN(C(=O)Cn2ccc([N+](=O)[O-])n2)C(O)(C(F)(F)F)C1 (stereo not shown) | 11.3% |
| O=C(COC(=O)c1cc([N+](=O)[O-])ccc1N1CCOCC1)Nc1cccc(F)c1 | -28.5% |
| Cc1cc(-c2ccc(C)c(S(=O)(=O)NC(C)Cc3ccco3)c2)on1 (stereo not shown) | -39.4% |
| COc1ccc(C(=O)C2CCCN(Cc3cccn3-c3ccc(Cl)cn3)C2)c(OC)c1 (stereo not shown) | -76% |
| Cc1ccccc1NC(=S)Nc1cccc([N+](=O)[O-])c1 | 12.6% |
| COc1ccccc1C(=O)OCC(=O)c1cccc([N+](=O)[O-])c1 | 10.3% |
| CCOC(=O)C1(C)/C(=N/Nc2ccc(S(N)(=O)=O)cc2)C(=O)C(=O)N1c1ccccc1 (stereo not shown) | 9.65% |
| O=C1Nc2ccc(Cl)cc2C12OCCCO2 | 14.5% |
| Cc1ccc(C(C(=O)NCC2CCCO2)N(C(=O)c2snc(C(N)=O)c2N)c2ccccc2)o1 (stereo not shown) | 15.6% |
| CCCCOC(=O)/C=C/c1c(C)[nH]c(=O)[nH]c1=O | -5.32% |
| COc1ccccc1NC(=O)CSc1ccc2nnc(-c3ccncc3)n2n1 | -31.3% |
| COc1cccc(OCCN2CCN(c3ncnc4c3cnn4-c3ccccc3)CC2)c1 | -2.07% |
| O=C1NCC(=O)N2CCC[C@@H]12 | -7.68% |
